# Assay results published in PubChem BioAssay (NCATS).
# Records with an inconclusive call do not appear. Calls come from the whole dose curve; as a rule, active = well fitted inhibition curve with a large enough effect in the signal ratio, with a control signal flat (not every such curve was filed as active); inconclusive = small, poorly fitted or top-dose-only effect, or effect the other way, or a change in a side signal; inactive = no such curve, though single readings can be large or run the other way; the % refers to the signal ratio. For part of its entries the source gives two or more results. This list holds those alone. The source may hold further records. Values given together repeat one measurement (runs, samples, wells, individuals or studies).
# Molecular target: Retinoic acid receptor RXR-alpha (Homo sapiens) (UniProt P19793)
# Assay: qHTS assay for small molecule antagonists of retinoid X receptor alpha signaling (AID 588546)
# Settings: HEK293T RXRa-UAS-bla, beta-lactamase ratio, antagonist mode
# Outline: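 Beta-lactamase reporter inhibition, read as CCF4 fluorescence ratio (ex 405, em 460/530 nm) after 2 h at RT. HEK293T UAS-bla cells, 2500/well, were stimulated with 9-cis-RA at 500 or 100 nM final alongside test compound for 18 h at 37 C.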
# % is set by controls: 0 for no effect and ±100 for the full control effect.
# Sequence of UniProt P19793 (P19793 whole entry, looked up): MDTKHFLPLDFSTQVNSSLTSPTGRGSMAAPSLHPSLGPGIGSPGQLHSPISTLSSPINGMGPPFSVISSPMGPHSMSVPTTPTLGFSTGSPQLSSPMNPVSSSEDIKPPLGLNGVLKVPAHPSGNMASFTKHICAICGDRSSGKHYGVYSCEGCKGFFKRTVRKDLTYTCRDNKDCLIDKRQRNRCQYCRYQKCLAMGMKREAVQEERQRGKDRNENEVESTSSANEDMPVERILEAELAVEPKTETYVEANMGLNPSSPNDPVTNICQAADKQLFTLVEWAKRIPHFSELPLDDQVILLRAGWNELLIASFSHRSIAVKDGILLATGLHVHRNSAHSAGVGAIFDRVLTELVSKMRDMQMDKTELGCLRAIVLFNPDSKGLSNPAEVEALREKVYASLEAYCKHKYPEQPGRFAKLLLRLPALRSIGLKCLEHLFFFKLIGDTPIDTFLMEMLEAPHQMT
compound,measurement,value
CCOP(=S)(OCC)Oc1nc(Cl)c(Cl)cc1Cl,max response,"inactive: -7.75, 1.08, -36.1, -4.87% [separate samples]"
